Here are results for 63 sequences from publication PMC12820563.

The list shows a part of the results. The list includes weakly bound sequences.

This assay deals with T1, MBP-FoxP3dN (UniProt Q99JB6).
T1 sequence: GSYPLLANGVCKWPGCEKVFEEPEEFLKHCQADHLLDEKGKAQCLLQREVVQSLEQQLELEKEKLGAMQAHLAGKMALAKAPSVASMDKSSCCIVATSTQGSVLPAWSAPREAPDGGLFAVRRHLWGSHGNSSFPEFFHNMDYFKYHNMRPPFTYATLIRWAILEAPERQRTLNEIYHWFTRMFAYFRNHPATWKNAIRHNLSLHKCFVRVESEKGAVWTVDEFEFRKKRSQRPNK
In words: PD-seq (MBP pull-down with sequencing). Conditions: 20 mM Tris-HCl pH 7.5, 100 mM NaCl, 1.5 mM MgCl2, 0.4 uM protein, 0.1 uM dsDNA library, 30 min, room temperature, amylose pull-down; high values mean tight binding; double strand, one strand shown.
“GATGATTGTTCTCCCAGCTGATGAATTTATGCGCTCGAGTAAACAAATTTTCCTAATCTTTCTGTTCAAGCGCCATCTAC”: the binding signal (RPM ratio (pull-down/input)) stood at 1.41.
As for “GATGATTGTTCTCCCAGCTGATGAATTCTCATCGTCGAGTAAACAAATTTTCCTAATCTTTCTGTTCAAGCGCCATCTAC”, the figure is 0.326; as for “GATGATTGTTCTCCCAGCTGATGAATTGAAACACTCGAGTAAACAAATTTTCCTAATCTTTCTGTTCAAGCGCCATCTAC”, 0.636; as for “GATGATTGTTCTCCCAGCTGATGAATTATGAGTTTCGAGTAAACAAATTTTCCTAATCTTTCTGTTCAAGCGCCATCTAC”, 2.02.
As for “GATGATTGTTCTCCCAGCTGATGAATTACTCACGTCGAGTAAACAAATTTTCCTAATCTTTCTGTTCAAGCGCCATCTAC”, the figure is 0.349; as for “GATGATTGTTCTCCCAGCTGATGAATTGCCGTAATCGAGTAAACAAATTTTCCTAATCTTTCTGTTCAAGCGCCATCTAC”, 0.9.
Next, “GATGATTGTTCTCCCAGCTGATGAATTCCACGTGTCGAGTAAACAAATTTTCCTAATCTTTCTGTTCAAGCGCCATCTAC”: 0.486; “GATGATTGTTCTCCCAGCTGATGAATTTATGGGCTCGAGTAAACAAATTTTCCTAATCTTTCTGTTCAAGCGCCATCTAC”: 0.901; “GATGATTGTTCTCCCAGCTGATGAATTTGCTGTCTCGAGTAAACAAATTTTCCTAATCTTTCTGTTCAAGCGCCATCTAC”: 6.16.
For the sequence “GATGATTGTTCTCCCAGCTGATGAATTTCTTTAGTCGAGTAAACAAATTTTCCTAATCTTTCTGTTCAAGCGCCATCTAC”, the binding signal (RPM ratio (pull-down/input)) was found to be 0.745.
“GATGATTGTTCTCCCAGCTGATGAATTAACCTTGTCGAGTAAACAAATTTTCCTAATCTTTCTGTTCAAGCGCCATCTAC”: the binding signal (RPM ratio (pull-down/input)) worked out at 0.245.
As to “GATGATTGTTCTCCCAGCTGATGAATTCCCGAGTTCGAGTAAACAAATTTTCCTAATCTTTCTGTTCAAGCGCCATCTAC”, the binding signal (RPM ratio (pull-down/input)) turned out to be 0.355.
As for “GATGATTGTTCTCCCAGCTGATGAATTCCATGTCTCGAGTAAACAAATTTTCCTAATCTTTCTGTTCAAGCGCCATCTAC”, the figure is 0.592; as for “GATGATTGTTCTCCCAGCTGATGAATTGATCTGCTCGAGTAAACAAATTTTCCTAATCTTTCTGTTCAAGCGCCATCTAC”, 0.268.
As for “GATGATTGTTCTCCCAGCTGATGAATTATTTGTCTCGAGTAAACAAATTTTCCTAATCTTTCTGTTCAAGCGCCATCTAC”, the figure is 2.46; as for “GATGATTGTTCTCCCAGCTGATGAATTCCAATCCTCGAGTAAACAAATTTTCCTAATCTTTCTGTTCAAGCGCCATCTAC”, 0.331; as for “GATGATTGTTCTCCCAGCTGATGAATTAAACTGATCGAGTAAACAAATTTTCCTAATCTTTCTGTTCAAGCGCCATCTAC”, 0.309.
As for “GATGATTGTTCTCCCAGCTGATGAATTTATCGCGTCGAGTAAACAAATTTTCCTAATCTTTCTGTTCAAGCGCCATCTAC”, the figure is 1.07; as for “GATGATTGTTCTCCCAGCTGATGAATTAAGAGAATCGAGTAAACAAATTTTCCTAATCTTTCTGTTCAAGCGCCATCTAC”, 0.178.
On to “GATGATTGTTCTCCCAGCTGATGAATTTGTCCCGTCGAGTAAACAAATTTTCCTAATCTTTCTGTTCAAGCGCCATCTAC”, for which the binding signal (RPM ratio (pull-down/input)) was 2.84.
As for “GATGATTGTTCTCCCAGCTGATGAATTACGCGACTCGAGTAAACAAATTTTCCTAATCTTTCTGTTCAAGCGCCATCTAC”, the figure is 1.66.
As for “GATGATTGTTCTCCCAGCTGATGAATTGTTCCCGTCGAGTAAACAAATTTTCCTAATCTTTCTGTTCAAGCGCCATCTAC”, the figure is 0.277.
As for “GATGATTGTTCTCCCAGCTGATGAATTCCTCCGGTCGAGTAAACAAATTTTCCTAATCTTTCTGTTCAAGCGCCATCTAC”, the figure is 0.176; as for “GATGATTGTTCTCCCAGCTGATGAATTTGATACTTCGAGTAAACAAATTTTCCTAATCTTTCTGTTCAAGCGCCATCTAC”, 0.986.
For “GATGATTGTTCTCCCAGCTGATGAATTATGGAAGTCGAGTAAACAAATTTTCCTAATCTTTCTGTTCAAGCGCCATCTAC”, the binding signal (RPM ratio (pull-down/input)) came out at 0.235.
Turning to “GATGATTGTTCTCCCAGCTGATGAATTCATCTGCTCGAGTAAACAAATTTTCCTAATCTTTCTGTTCAAGCGCCATCTAC”, the binding signal (RPM ratio (pull-down/input)) came out at 0.337.
As for “GATGATTGTTCTCCCAGCTGATGAATTTCGCTGCTCGAGTAAACAAATTTTCCTAATCTTTCTGTTCAAGCGCCATCTAC”, the figure is 0.63.
Take “GATGATTGTTCTCCCAGCTGATGAATTTTAGCGGTCGAGTAAACAAATTTTCCTAATCTTTCTGTTCAAGCGCCATCTAC”: the binding signal (RPM ratio (pull-down/input)) was found to be 0.285.
As for “GATGATTGTTCTCCCAGCTGATGAATTTTGGAACTCGAGTAAACAAATTTTCCTAATCTTTCTGTTCAAGCGCCATCTAC”, the figure is 0.245; as for “GATGATTGTTCTCCCAGCTGATGAATTCGAGGATTCGAGTAAACAAATTTTCCTAATCTTTCTGTTCAAGCGCCATCTAC”, 0.338.
With “GATGATTGTTCTCCCAGCTGATGAATTGTATTGATCGAGTAAACAAATTTTCCTAATCTTTCTGTTCAAGCGCCATCTAC”, the binding signal (RPM ratio (pull-down/input)) was 5.01.
Next, “GATGATTGTTCTCCCAGCTGATGAATTTATCGGATCGAGTAAACAAATTTTCCTAATCTTTCTGTTCAAGCGCCATCTAC”: 0.349.
As for “GATGATTGTTCTCCCAGCTGATGAATTGCGCAGATCGAGTAAACAAATTTTCCTAATCTTTCTGTTCAAGCGCCATCTAC”, the figure is 0.774.
As for “GATGATTGTTCTCCCAGCTGATGAATTAACTGTATCGAGTAAACAAATTTTCCTAATCTTTCTGTTCAAGCGCCATCTAC”, the figure is 0.594; as for “GATGATTGTTCTCCCAGCTGATGAATTAAGTGCTTCGAGTAAACAAATTTTCCTAATCTTTCTGTTCAAGCGCCATCTAC”, 0.6.
Consider “GATGATTGTTCTCCCAGCTGATGAATTAGCTTTATCGAGTAAACAAATTTTCCTAATCTTTCTGTTCAAGCGCCATCTAC”, for which the binding signal (RPM ratio (pull-down/input)) came out at 1.44.
Take “GATGATTGTTCTCCCAGCTGATGAATTATGCAGTTCGAGTAAACAAATTTTCCTAATCTTTCTGTTCAAGCGCCATCTAC”: the binding signal (RPM ratio (pull-down/input)) turned out to be 2.29.
Next, “GATGATTGTTCTCCCAGCTGATGAATTGAGAGCCTCGAGTAAACAAATTTTCCTAATCTTTCTGTTCAAGCGCCATCTAC”: 0.444; “GATGATTGTTCTCCCAGCTGATGAATTACACTGATCGAGTAAACAAATTTTCCTAATCTTTCTGTTCAAGCGCCATCTAC”: 0.457.
On to “GATGATTGTTCTCCCAGCTGATGAATTTTCCCATTCGAGTAAACAAATTTTCCTAATCTTTCTGTTCAAGCGCCATCTAC”, for which the binding signal (RPM ratio (pull-down/input)) turned out to be 0.252.
For “GATGATTGTTCTCCCAGCTGATGAATTAGTGATGTCGAGTAAACAAATTTTCCTAATCTTTCTGTTCAAGCGCCATCTAC”, the binding signal (RPM ratio (pull-down/input)) amounted to 2.37.
In the case of “GATGATTGTTCTCCCAGCTGATGAATTCACTTCTTCGAGTAAACAAATTTTCCTAATCTTTCTGTTCAAGCGCCATCTAC”, the binding signal (RPM ratio (pull-down/input)) stood at 0.371.
As for “GATGATTGTTCTCCCAGCTGATGAATTTCACTCATCGAGTAAACAAATTTTCCTAATCTTTCTGTTCAAGCGCCATCTAC”, the binding signal (RPM ratio (pull-down/input)) was 0.652.
Next, “GATGATTGTTCTCCCAGCTGATGAATTAATATCCTCGAGTAAACAAATTTTCCTAATCTTTCTGTTCAAGCGCCATCTAC”: 0.643; “GATGATTGTTCTCCCAGCTGATGAATTCTGGTGATCGAGTAAACAAATTTTCCTAATCTTTCTGTTCAAGCGCCATCTAC”: 0.544.
For the sequence “GATGATTGTTCTCCCAGCTGATGAATTACATTTATCGAGTAAACAAATTTTCCTAATCTTTCTGTTCAAGCGCCATCTAC”, the binding signal (RPM ratio (pull-down/input)) is 1.35.
Consider “GATGATTGTTCTCCCAGCTGATGAATTGCGCCTATCGAGTAAACAAATTTTCCTAATCTTTCTGTTCAAGCGCCATCTAC”, for which the binding signal (RPM ratio (pull-down/input)) is 3.68.
Next, “GATGATTGTTCTCCCAGCTGATGAATTTAAAATCTCGAGTAAACAAATTTTCCTAATCTTTCTGTTCAAGCGCCATCTAC”: 0.196; “GATGATTGTTCTCCCAGCTGATGAATTTCAGGAATCGAGTAAACAAATTTTCCTAATCTTTCTGTTCAAGCGCCATCTAC”: 0.179; “GATGATTGTTCTCCCAGCTGATGAATTGGTCTCGTCGAGTAAACAAATTTTCCTAATCTTTCTGTTCAAGCGCCATCTAC”: 0.336.
Next, “GATGATTGTTCTCCCAGCTGATGAATTTCGGATATCGAGTAAACAAATTTTCCTAATCTTTCTGTTCAAGCGCCATCTAC”: 0.42; “GATGATTGTTCTCCCAGCTGATGAATTATCCGTGTCGAGTAAACAAATTTTCCTAATCTTTCTGTTCAAGCGCCATCTAC”: 0.352; “GATGATTGTTCTCCCAGCTGATGAATTCTCGCCTTCGAGTAAACAAATTTTCCTAATCTTTCTGTTCAAGCGCCATCTAC”: 2.22.
Next, “GATGATTGTTCTCCCAGCTGATGAATTGCCTCTGTCGAGTAAACAAATTTTCCTAATCTTTCTGTTCAAGCGCCATCTAC”: 0.862; “GATGATTGTTCTCCCAGCTGATGAATTCGTGCGATCGAGTAAACAAATTTTCCTAATCTTTCTGTTCAAGCGCCATCTAC”: 0.628.
On to “GATGATTGTTCTCCCAGCTGATGAATTCGGAGGTTCGAGTAAACAAATTTTCCTAATCTTTCTGTTCAAGCGCCATCTAC”, for which the binding signal (RPM ratio (pull-down/input)) was found to be 0.33.
Regarding “GATGATTGTTCTCCCAGCTGATGAATTGCGTCGCTCGAGTAAACAAATTTTCCTAATCTTTCTGTTCAAGCGCCATCTAC”, the binding signal (RPM ratio (pull-down/input)) came out at 0.993.
As for “GATGATTGTTCTCCCAGCTGATGAATTTATGAGCTCGAGTAAACAAATTTTCCTAATCTTTCTGTTCAAGCGCCATCTAC”, the figure is 1.58.
For the sequence “GATGATTGTTCTCCCAGCTGATGAATTCGTGCTTTCGAGTAAACAAATTTTCCTAATCTTTCTGTTCAAGCGCCATCTAC”, the binding signal (RPM ratio (pull-down/input)) amounted to 0.96.
Next, “GATGATTGTTCTCCCAGCTGATGAATTGCCGTACTCGAGTAAACAAATTTTCCTAATCTTTCTGTTCAAGCGCCATCTAC”: 0.656; “GATGATTGTTCTCCCAGCTGATGAATTAAGAGTTTCGAGTAAACAAATTTTCCTAATCTTTCTGTTCAAGCGCCATCTAC”: 1.24.
Consider “GATGATTGTTCTCCCAGCTGATGAATTACCAACCTCGAGTAAACAAATTTTCCTAATCTTTCTGTTCAAGCGCCATCTAC”, for which the binding signal (RPM ratio (pull-down/input)) was determined as 0.382.
As for “GATGATTGTTCTCCCAGCTGATGAATTCTCGTGGTCGAGTAAACAAATTTTCCTAATCTTTCTGTTCAAGCGCCATCTAC”, the figure is 0.27.
